The record followed here is PMC4336329 (PLoS ONE, 2015).

The whole screen tested about 310,000 compounds, of which about 2,200 (0.71%) showed an effect of 50% or more. Effects have a minus sign here. The list shows a part of the results.

The assay deals with human ether-à-go-go-related gene (hERG) potassium channel (human, UniProt Q12809). The assay can be described thus: primary screen, population patch clamp on CHO cells stably expressing hERG.
human ether-à-go-go-related gene (hERG) potassium channel, sequence (Q12809 whole entry, looked up): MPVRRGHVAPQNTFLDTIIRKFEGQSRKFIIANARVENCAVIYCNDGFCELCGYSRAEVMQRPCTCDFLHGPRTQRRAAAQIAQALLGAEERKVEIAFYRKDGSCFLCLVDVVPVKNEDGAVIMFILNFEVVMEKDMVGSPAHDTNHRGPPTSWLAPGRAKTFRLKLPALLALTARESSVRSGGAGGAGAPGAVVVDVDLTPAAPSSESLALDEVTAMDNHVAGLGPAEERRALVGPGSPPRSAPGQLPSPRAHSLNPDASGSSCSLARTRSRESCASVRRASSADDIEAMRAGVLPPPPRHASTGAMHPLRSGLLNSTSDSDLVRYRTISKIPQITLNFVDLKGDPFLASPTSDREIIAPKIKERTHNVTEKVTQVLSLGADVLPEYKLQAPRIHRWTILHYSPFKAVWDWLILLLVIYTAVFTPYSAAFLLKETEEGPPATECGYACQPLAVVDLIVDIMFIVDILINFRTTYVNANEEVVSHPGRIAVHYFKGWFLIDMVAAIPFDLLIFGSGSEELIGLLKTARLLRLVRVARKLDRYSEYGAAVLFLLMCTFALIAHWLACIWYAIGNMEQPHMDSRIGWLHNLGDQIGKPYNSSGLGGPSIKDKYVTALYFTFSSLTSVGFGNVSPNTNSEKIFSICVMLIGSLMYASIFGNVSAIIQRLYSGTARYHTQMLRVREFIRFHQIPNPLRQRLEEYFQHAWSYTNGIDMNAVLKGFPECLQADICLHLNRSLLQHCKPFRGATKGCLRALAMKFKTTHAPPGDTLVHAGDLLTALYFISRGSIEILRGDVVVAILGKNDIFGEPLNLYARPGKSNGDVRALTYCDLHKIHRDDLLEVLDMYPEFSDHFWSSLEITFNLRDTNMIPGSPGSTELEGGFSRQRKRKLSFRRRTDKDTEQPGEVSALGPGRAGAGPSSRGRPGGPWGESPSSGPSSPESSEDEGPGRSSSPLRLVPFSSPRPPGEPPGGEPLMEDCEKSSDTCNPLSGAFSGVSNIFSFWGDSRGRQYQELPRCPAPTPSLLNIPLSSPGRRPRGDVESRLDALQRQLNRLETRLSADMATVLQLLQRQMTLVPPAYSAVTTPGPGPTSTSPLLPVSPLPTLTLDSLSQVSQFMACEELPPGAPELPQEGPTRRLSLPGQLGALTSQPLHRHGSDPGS
For the molecule `COc1ccc(OC)c(/C=N/NC(=O)c2ccc3nc[nH]c3c2)c1`, the “hERG current change (%, negative = inhibition) at 1uM” value came to 16%. The same measure for `CCCC(c1nnnn1Cc1ccco1)N1CCN(c2cc(Cl)ccc2C)CC1.Cl` (stereo not shown): 2.96%.

`O=S(=O)(/C=C/c1ccccc1)N1CCc2ccccc2C1`: the “hERG current change (%, negative = inhibition) at 1uM” value is 17.5%. The same measure for `CN(C(=O)COC(=O)CCC(=O)c1ccc(Cl)cc1)c1c(N)n(Cc2ccccc2)c(=O)[nH]c1=O`: -8.88%; for `CC1=CCC2C(=O)N(c3ccc(C)cc3)C(=O)C2C1` (stereo not shown): 4.21%. The same measure for `Cc1cc(C)n(CC(C)NCc2cn[nH]c2-c2cccc3ccccc23)n1` (stereo not shown): 5.94%. The same measure for `Cc1c(NC(=O)c2ccccc2NC(=O)COc2ccccc2)cccc1C(=O)O`: 9.33%; for `Cc1cc2occ(CC(=O)N(CCC(C)C)c3c(N)n(Cc4ccccc4)c(=O)[nH]c3=O)c2cc1C`: 6.09%. For `CCOC(=O)c1c(NC(=O)CSc2nnc(-c3ccco3)o2)sc(C)c1C`, the “hERG current change (%, negative = inhibition) at 1uM” value is -10.8%.

Regarding `Brc1ccc(C2=CSC3=NCCN23)cc1`, the “hERG current change (%, negative = inhibition) at 1uM” value came out at 1.52%. With `COc1ccc2oc(C(=O)OCC(=O)N3CCC(C)CC3)c(C)c2c1`, the “hERG current change (%, negative = inhibition) at 1uM” value is on record as 9.44%.

For `Cc1ccc(OCCCCCCN2CCNCC2)c(Br)c1.O=C(O)C(=O)O`, the “hERG current change (%, negative = inhibition) at 1uM” value turned out to be 9.04%.

Turning to `CCCn1c(SCC(=O)NC2CCCCC2)nnc1-c1ccncc1`, the “hERG current change (%, negative = inhibition) at 1uM” value amounted to 7.5%. To `CSc1ccc(S(=O)(=O)Nc2ccc(NC(C)=O)cc2)cc1` belongs -0.665%; to `CCc1ccc2[nH]c(=O)c(CN(CCCO)C(=O)NCc3ccccc3)cc2c1`, 0.119%. To `COCCCn1c(=O)c2sccc2n2c(CCCC(=O)NCC3CCCO3)nnc12` (stereo not shown) belongs 14%; to `CN1CCN(CC(=O)C23CC4CC(CC(C4)C2)C3)CC1.Cl`, 9.42%. The same measure for `Cc1[nH]c2ccccc2c1-c1nc2ccccc2[nH]c1=O`: 16.1%; for `CCOC(=O)c1ccc2nc(NC(=O)c3ccco3)sc2c1`: 11%. `COC(=O)[C@H](c1ccccc1Cl)N1CCc2sccc2C1`: the “hERG current change (%, negative = inhibition) at 1uM” value is on record as 17.4%. The same measure for `O=C(N/N=C/c1ccco1)C1COc2ccccc2O1` (stereo not shown): 4.37%.

Regarding `Cn1ncc(Cl)c1C(=O)N1CCN(C23CC4CC(CC(C4)C2)C3)CC1`, the “hERG current change (%, negative = inhibition) at 1uM” value came to 8.39%.

In the case of `COc1ccc(N2C(=NC(=O)CC3CCCCC3)SC3CS(=O)(=O)CC32)cc1` (stereo not shown), the “hERG current change (%, negative = inhibition) at 1uM” value is 6.18%. For the molecule `CN(Cc1ccccc1)C(=O)c1ncn(Cc2ccccc2)c1C(=O)N(C)Cc1ccccc1`, the “hERG current change (%, negative = inhibition) at 1uM” value came to 5.53%. The same measure for `Cc1nc2ccc(S(=O)(=O)NCC(=O)N(C)Cc3ccccc3)cc2s1`: 13.6%; for `CCS(=O)(=O)NC(C)c1nnc2n1-c1ccc(Br)cc1C(c1ccccc1Cl)=NC2` (stereo not shown): -4.22%; for `Cc1nnc(NC(=O)C2CCCO2)s1` (stereo not shown): 5.67%. To `CCC(Sc1nc(N)c(NC(=O)c2ccc(Br)o2)c(=O)[nH]1)C(=O)O` (stereo not shown) belongs 7.26%; to `CC1=NNC(=O)C1Cc1ccccc1C` (stereo not shown), 13.9%.

On to `Cc1cc(C)cc(NC(=O)CSc2nc3ccccc3nc2N2CCCC2)c1`, for which the “hERG current change (%, negative = inhibition) at 1uM” value was -20.3%. On to `COc1ccc(C2CC(c3ccccc3)=NN2C(=O)COC(=O)c2nc3nc(C)cc(C)n3n2)cc1` (stereo not shown), for which the “hERG current change (%, negative = inhibition) at 1uM” value was 9.71%.

In the case of `C(=N\Nc1nc(-c2ccccc2)cs1)/c1ccco1`, the “hERG current change (%, negative = inhibition) at 1uM” value is listed as -1.52%.

Consider `NC(=O)N(N)c1nc(N2CCCC2)nc(N2CCCC2)n1`, for which the “hERG current change (%, negative = inhibition) at 1uM” value worked out at 6.1%. To `COc1ccc(O)c(CNc2ccccc2F)c1` belongs -2.81%. To `COC(=O)CSc1nnc(-c2ccco2)n1Cc1ccco1` belongs -13.2%. To `CCOc1cccc(/C=N/NC(=O)c2ccc3c(c2)OCCO3)c1O` belongs 8.33%; to `O=c1[nH]c(Cc2ccccc2Cl)nc2ccccc12`, 17.8%; to `Cc1cccc(NC(=O)CN2CCN(CC(=O)Nc3cccc(C)c3)CC2)c1`, -44.1%. Turning to `Cc1ccccc1OCC(O)Cn1c(N2CCN(c3ccccc3)CC2)nc2c1c(=O)[nH]c(=O)n2C` (stereo not shown), the “hERG current change (%, negative = inhibition) at 1uM” value was 10.3%.

Turning to `Cc1ccc(C(=O)Nc2cc3[nH]c(=O)oc3cc2C)cc1`, the “hERG current change (%, negative = inhibition) at 1uM” value worked out at 3.78%.

For `O=c1[nH]n(-c2ncnc3c2cnn3-c2ccccc2)c(=O)c2ccccc12`, the “hERG current change (%, negative = inhibition) at 1uM” value was 18%. To `CC1CCN(C(=O)CSCC(=O)Nc2nc(-c3cccs3)cs2)CC1` belongs 11.4%; to `COc1ccccc1OCC(=O)Nc1c2c(nn1-c1ccc(C)cc1)CS(=O)(=O)C2`, -6.13%. The same measure for `CCCOC(=O)/C(=C\c1ccc([N+](=O)[O-])o1)NC(=O)c1ccccc1`: -36.4%; for `O=C(CN1CC(=O)Oc2ccccc21)OCC(=O)c1ccccc1`: 11.4%. The same measure for `S=c1[nH]ncn1/N=C/c1ccc(Br)cc1`: 9.92%. Consider `CCC(=O)n1nc(-c2cccnc2)nc1NCc1cccs1`, for which the “hERG current change (%, negative = inhibition) at 1uM” value is 7.2%.

For `O=C(Cc1ccc(F)cc1)NCCc1ccc(F)cc1`, the “hERG current change (%, negative = inhibition) at 1uM” value was 0.36%.

As for `CC(=O)Nc1ccc(N=Nc2c(C)[nH]n(C(N)=S)c2=O)cc1`, the “hERG current change (%, negative = inhibition) at 1uM” value came out at 17.1%. To `CCCc1cc(C(=O)Nc2cccc(Cl)c2)no1` belongs 5.03%; to `CC(C)(C)NC(=O)C(c1ccccc1)N(Cc1ccco1)C(=O)c1csnn1` (stereo not shown), 11.5%; to `COc1cc(-n2ccnc2SC)c(Cl)cc1Cl`, 7.01%.

Take `CC(=O)Nc1ccc(S(=O)(=O)N(C)CC(=O)NC2CCCC(C)C2C)cc1` (stereo not shown): the “hERG current change (%, negative = inhibition) at 1uM” value is recorded as 5.99%. To `Fc1ccccc1CSCc1nc2ccccc2[nH]1` belongs 4.56%; to `COc1ccc(/C=C(\C#N)C(=O)OCC(=O)NCc2ccccc2)cc1`, 12.6%.

As to `C=CCOc1nc(-c2ccncc2)nc2ccccc12`, the “hERG current change (%, negative = inhibition) at 1uM” value is 12.6%.

For `COc1ccc(S(=O)(=O)NCCc2cn3nc(C)c(C)nc3n2)cc1F`, the “hERG current change (%, negative = inhibition) at 1uM” value turned out to be 9.48%. Take `Cc1ccc(N=C2NC(=O)/C(=C\c3ccco3)S2)cc1`: the “hERG current change (%, negative = inhibition) at 1uM” value was determined as 6.28%.

In the case of `O=C(CSc1nnc(Cc2cc(=O)[nH]c(=O)[nH]2)n1-c1ccccc1)N1CCCc2ccccc21`, the “hERG current change (%, negative = inhibition) at 1uM” value came out at 17.3%. Turning to `COc1ccc(NS(=O)(=O)c2cn(C)c(=O)n(C)c2=O)cc1`, the “hERG current change (%, negative = inhibition) at 1uM” value was 12.3%. The same measure for `COc1ccc(N(CC(=O)N2CCN(Cc3ccccc3)CC2)S(=O)(=O)c2ccccc2)cc1`: 4.82%. Turning to `Cc1nc2sccn2c(=O)c1CCN1CCC(=C(c2ccccc2)c2ccc(F)cc2)CC1`, the “hERG current change (%, negative = inhibition) at 1uM” value is reported as -78.8%.

On to `N#CC(C(=O)NCc1ccccc1)c1nc2ccccc2nc1N1CCCC1` (stereo not shown), for which the “hERG current change (%, negative = inhibition) at 1uM” value is 4.79%. For the molecule `Cc1cccc(CN2CCN(CC(=O)NCCCN3CCN(c4ccc(F)cc4)CC3)C2=O)c1`, the “hERG current change (%, negative = inhibition) at 1uM” value is -54.5%. To `COc1cc2c(c(OC)c1OC)-c1ccc(OC)c(=O)cc1[C@@H](N(C)CC#CCO)CC2` belongs 14.6%. To `O=C(N/N=C\c1ccncc1)c1ccccc1O` belongs 0.711%. On to `O=C(N1CCCCC1)N1CCN(C(=O)N(c2ccccc2)c2ccccc2)CC1`, for which the “hERG current change (%, negative = inhibition) at 1uM” value amounted to 7.33%.

`COc1ccc(/C=C/C(=O)NCc2ccc3c(c2)OCO3)cc1OC`: the “hERG current change (%, negative = inhibition) at 1uM” value turned out to be 9.85%. As for `CCc1ccc(S(=O)(=O)N(C(=O)c2ccncc2)c2ccc(OC(=O)c3ccncc3)cc2)cc1`, the “hERG current change (%, negative = inhibition) at 1uM” value is listed as 11.6%. The same measure for `Cc1ccc2cc(CN(CCc3ccccc3)C(=S)NCCCN(C)C)c(=O)[nH]c2c1`: -41.1%. The same measure for `Cc1nc2ccccc2c(=O)n1/N=C/c1ccco1`: -1.99%. The same measure for `Cn1c(=O)[nH]c2cc(Cl)cnc21`: 6.92%. With `Cc1ccc(S(=O)(=O)N(CC(=O)N2CCCCCC2)c2ccccc2)cc1`, the “hERG current change (%, negative = inhibition) at 1uM” value was -1.11%.

`CC1CC(C)CN(C(=O)COC(=O)c2cn(C)c3ccccc23)C1` (stereo not shown): the “hERG current change (%, negative = inhibition) at 1uM” value was determined as 9.34%.

`Cc1oc(-c2ccccc2F)nc1CS(=O)(=O)CC(=O)NCc1ccco1`: the “hERG current change (%, negative = inhibition) at 1uM” value is reported as -4.73%. The same measure for `O=C(O)/C(=C/c1cccnc1)NC(=O)c1ccccc1`: 13.9%; for `O=C(CSc1nc(C(F)(F)F)cc(=O)[nH]1)NCc1ccc2c(c1)OCO2`: 12.5%; for `COCCNC(=O)CN1C(=O)CC(C)(C)S(=O)(=O)c2ccccc21`: 17.4%. To `COc1ccccc1/C=C/C(=O)NC(=S)NC(C)C` belongs 2.84%.

Consider `COc1ccc(/C=N/Nc2ccccc2C(=O)O)cc1`, for which the “hERG current change (%, negative = inhibition) at 1uM” value is recorded as 18.8%. With `C#CCOCCOCCOCCNc1nc(N2CCN(C(=O)[C@H](CCCCN)n3cc([C@@H](N)CO)nn3)CC2)nc(N2CCN(C(=O)[C@H](Cc3cc4ccccc4[nH]3)n3cc([C@@H](N)CO)nn3)CC2)n1.Cl`, the “hERG current change (%, negative = inhibition) at 1uM” value is 17.1%. The same measure for `CCCc1cc(=O)oc2cc(C)cc(OCC(=O)NC(Cc3ccc(Cl)cc3)C(=O)O)c12` (stereo not shown): 13.2%; for `Cc1[nH][nH]c(=O)c1C(c1ccc(-c2ccc(Cl)c(Cl)c2)o1)c1c(C)[nH][nH]c1=O`: 15.8%; for `Cc1c(C(=O)C(=O)N2CCC3(CC2)OCCO3)c2ccccc2n1C`: 11.3%. To `O=C(NCCCNC(=O)c1ccc(Cl)cc1Cl)c1ccco1` belongs -1.77%. In the case of `Cc1c(C(=O)c2ccc(Cl)cc2[N+](=O)[O-])c2ccccn2c1CCC#N`, the “hERG current change (%, negative = inhibition) at 1uM” value is 1.86%. The same measure for `NC(=O)CC(NC(=O)Cc1ccc(Br)cc1)c1ccc(N2CCc3ccccc3C2)c([N+](=O)[O-])c1` (stereo not shown): 9.06%; for `Cc1occc1C(=O)Nc1c(F)cc(F)cc1Br`: -5.86%.
